Measurements published in the antibiotic and cytotoxicity screens of Wong et al. (2023).
Some of the results follow.

Tests used:
HSkMC = human skeletal muscle cells; assay: cytotoxicity call (relative viability < 0.9); settings: 10 µM
HepG2 = assay: cytotoxicity call (relative viability < 0.9); settings: 10 µM
S. aureus RN4220 = assay: growth inhibition call (relative growth <= 0.2); settings: 50 µM

SMILES	cytotoxicity call (HSkMC)	cytotoxicity call (HepG2)	growth inhibition call (S. aureus RN4220)
C[C@@H]1CN([C@H](C)CO)C(=O)Cc2cc(NS(=O)(=O)c3ccc(Cl)cc3)ccc2O[C@@H]1CN(C)Cc1ccc(Cl)c(Cl)c1	active	active	inactive
Cc1noc(C)c1S(=O)(=O)Nc1cccc2c1O[C@@H](CN(C)Cc1ccncc1)[C@@H](C)CN([C@H](C)CO)C2=O	inactive	inactive	inactive
CC(C)C#Cc1ccc2c(c1)O[C@H](CN(C)C(=O)c1cccc(F)c1)[C@@H](C)CN([C@@H](C)CO)S2(=O)=O	inactive	inactive	inactive
Cc1ccc(S(=O)(=O)N(C)C[C@H]2Oc3ccc(NS(=O)(=O)c4ccc(F)cc4)cc3CC(=O)N([C@H](C)CO)C[C@@H]2C)cc1	inactive	inactive	inactive
Cn1ccc(C(=O)N2CC[C@@H]3OCCN(S(C)(=O)=O)[C@@H]3C2)n1	inactive	inactive	inactive
Cc1noc(C)c1S(=O)(=O)Nc1ccc2c(c1)CC(=O)N([C@@H](C)CO)C[C@@H](C)[C@H](CN(C)Cc1ccc(-c3ccccc3)cc1)O2	active	inactive	inactive
COC(=O)[C@H](Cc1ccccc1)N1CC2=C[C@@H]([C@@H](O)CCn3cc(CCC(=O)NO)nn3)n3c(=O)n(C)c(=O)n3[C@@H]2[C@@H](C2CC2)O1	inactive	inactive	inactive
Nc1ncn(C2OC(CO)C(O)C2O)c(=O)n1 (stereo not drawn)	inactive	active	inactive
CCNC(=O)[C@H]1O[C@@H](n2cnc3c(N)nc(NCCc4ccc(CCC(=O)O)cc4)nc32)[C@H](O)[C@@H]1O	inactive	inactive	inactive
C[C@H]1CN([C@@H](C)CO)C(=O)c2cc(NS(=O)(=O)c3ccc(Cl)cc3)ccc2O[C@H]1CN(C)S(=O)(=O)c1cn(C)cn1	inactive	inactive	inactive
O=C(C[C@@H]1CC[C@H]2[C@@H](COC[C@@H](O)CN2C(=O)c2ccncc2)O1)NC1CCC1	inactive	inactive	inactive
N=c1sccn1CC(=O)O	inactive	inactive	inactive
COc1ccc(NC(=O)N(C)C[C@H]2Oc3c(NC(=O)C4CCOCC4)cccc3C(=O)N([C@H](C)CO)C[C@H]2C)cc1	inactive	inactive	inactive
Cc1noc(C)c1S(=O)(=O)Nc1ccc2c(c1)C(=O)N([C@H](C)CO)C[C@@H](C)[C@@H](CN(C)CC1CC1)O2	inactive	inactive	inactive
C[C@H](CO)N1C[C@H](C)[C@@H](CN(C)C(=O)C2CCCCC2)Oc2cc(C#CC(C)(C)O)ccc2S1(=O)=O	inactive	inactive	inactive
C[C@@H]1CN([C@@H](C)CO)C(=O)c2cc(NC(=O)Cn3cnnn3)ccc2O[C@@H]1CN(C)C(=O)NC1CCCCC1	inactive	inactive	inactive

SMILES	cytotoxicity call (HSkMC)	cytotoxicity call (HepG2)	growth inhibition call (S. aureus RN4220)
C[C@@H]1CCCCO[C@@H](CN(C)Cc2ccc(C(=O)O)cc2)[C@@H](C)CN([C@H](C)CO)C(=O)c2cc(NS(=O)(=O)c3cccs3)ccc2O1	inactive	inactive	inactive
C[C@H](CO)N1C[C@H](C)[C@@H](CN(C)Cc2ccc(-c3ccccc3)cc2)Oc2ccc(NC(=O)Cn3cnnn3)cc2C1=O	inactive	inactive	inactive
COc1ccc(CN(C)C[C@@H]2OCCCC[C@H](C)Oc3ccc(NC(=O)NC4CCCCC4)cc3C(=O)N([C@@H](C)CO)C[C@@H]2C)cc1	inactive	active	inactive
N[C@H]1CC[C@@H](CCn2cc(-c3ccccn3)nn2)O[C@H]1CO	inactive	inactive	inactive
C[C@H](CO)N1C[C@H](C)[C@@H](CN(C)C(=O)Nc2cccc(Oc3ccccn3)c2)OCc2cn(nn2)CCCC1=O	inactive	inactive	inactive
COc1ccc(-c2cnc3c(c2)C(=O)N([C@@H](C)CO)C[C@H](C)[C@H](CN(C)C(=O)C2CCOCC2)O3)cc1	inactive	inactive	inactive
C[C@@H]1CN([C@@H](C)CO)C(=O)c2cc(NC(=O)CCC(F)(F)F)ccc2O[C@@H](C)CCCCO[C@@H]1CN(C)C(=O)NC1CCCCC1	inactive	inactive	inactive
O=C(C[C@H]1C[C@H]2c3cc(NC(=O)c4ccc5c(c4)OCO5)ccc3O[C@H]2[C@@H](CO)O1)NCc1ccc(Oc2ccccc2)cc1	inactive	active	inactive
O=C(C[C@@H]1CC[C@H]2[C@@H](COC[C@@H](O)CN2S(=O)(=O)c2ccccc2)O1)NCCN1CCCCC1	inactive	inactive	inactive
COc1ccc(cc1)NC(=O)N1CC[C@]2(CC1)CN([C@@H](CO)c1[nH]c3cc(ccc3c12)OC)C(=O)CN1CCOCC1	inactive	inactive	inactive
C[C@H](CO)N1C[C@H](C)[C@H](CN(C)C(=O)c2cnccn2)Oc2cc(Br)ccc2S1(=O)=O	inactive	inactive	inactive
C[C@@H]1CN([C@H](C)CO)C(=O)c2cccc(NC(=O)Nc3cccc4ccccc34)c2O[C@@H]1CN(C)C(=O)NC1CCCCC1	inactive	inactive	inactive
COc1ccc(CN(C)C[C@@H]2Oc3c(NC(=O)C4CCOCC4)cccc3C(=O)N([C@H](C)CO)C[C@H]2C)cc1	inactive	inactive	inactive
C[C@@H]1CN([C@@H](C)CO)C(=O)c2cc(/C=C/c3ccccc3)cnc2O[C@@H]1CN(C)C(=O)c1cnccn1	inactive	inactive	inactive
CO[C@H]1C[C@@H](O[C@@H](O)[C@@H](O)[C@@H](O)[C@@H](O)[C@@H](O)CO)c2c(cc3cc(C)oc(=O)c3c2O)OC1=O	inactive	inactive	inactive
